In the supplement of paper PMC4967469:
pIC50: −log10 of the molar value. IC50 is the fitted dose that halves viability relative to control wells, and lower means more sensitive; where the fit passes the top or lowest dose, that dose stands as a limit. For AUC the same curve is integrated over the 256-fold range of doses and scaled to a fraction; the more sensitive the line, the further below 1. For some assays here: The top dose, if marked as inferred, is not printed in the source and was worked back from the curve model.

Experiments:
Assay in all cases: Viability of human cancer cell lines after 72 h of drug (GDSC screen)
Bosutinib = compound: COc1cc(Nc2c(C#N)cnc3cc(OCCCN4CCN(C)CC4)c(OC)cc23)c(Cl)cc1Cl [Bosutinib]; conditions: top dose 2 µM
Experimental: (§1)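 Human cancer cell lines in 384-well plates, medium with 10% serum, drug for 72 h over a 256-fold dose range (nine 2-fold or five 4-fold steps up to the top dose). Adherent lines were fixed and stained with the nucleic acid dye Syto60, suspension lines read with resazurin; signal relative to control wells, capped at 0 and 100%. One two-parameter sigmoid per drug and line, fitted in a mixed model over all curves with the slope shared within a line.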

Mitomycin C = compound: CO[C@@]12[C@H](COC(N)=O)C3=C(C(=O)C(C)=C(N)C3=O)N1C[C@@H]1N[C@@H]12 [Mitomycin C]; conditions: top dose 16 µM
Experimental: as §1

Roscovitine = compound: CC[C@H](CO)Nc1nc(NCc2ccccc2)c2ncn(C(C)C)c2n1 [Roscovitine]; conditions: top dose 16 µM; top dose inferred
Experimental: as §1

NVP-BHG712 = compound: Cc1ccc(C(=O)Nc2cccc(C(F)(F)F)c2)cc1Nc1nc(-c2cccnc2)nc2c1cnn2C [NVP-BHG712]; conditions: top dose 10.24 µM; top dose inferred
Experimental: as §1

Midostaurin = compound: CO[C@@H]1[C@H](N(C)C(=O)c2ccccc2)C[C@H]2O[C@]1(C)n1c3ccccc3c3c4c(c5c6ccccc6n2c5c31)C(=O)NC4 [Midostaurin]; conditions: top dose 0.512 µM; top dose inferred
Experimental: as §1

IOX2 = compound: O=C(O)CNC(=O)c1c(O)c2ccccc2n(Cc2ccccc2)c1=O [IOX2]; conditions: top dose 0.1 µM; top dose inferred
Experimental: as §1

Cell Line	AUC (Bosutinib)	pIC50 (Bosutinib)	AUC (Mitomycin C)	pIC50 (Mitomycin C)	AUC (Roscovitine)	pIC50 (Roscovitine)	AUC (NVP-BHG712)	pIC50 (NVP-BHG712)	AUC (Midostaurin)	pIC50 (Midostaurin)	AUC (IOX2)	pIC50 (IOX2)
DJM-1 (skin, adherent)	0.937	< 5.70	0.464	6.10	0.964	< 4.80	0.979	< 4.99	0.975	< 6.29	–	–
NCI-H82 (small cell lung carcinoma, suspension)	0.945	< 5.70	0.661	5.56	0.901	< 4.80	0.974	< 4.99	0.989	< 6.29	0.989	< 7.00
NCI-H2135 (non-small cell lung carcinoma, adherent)	0.973	< 5.70	0.59	5.76	0.979	< 4.80	0.719	5.59	0.946	< 6.29	0.99	< 7.00
IST-SL2 (small cell lung carcinoma, suspension)	0.936	< 5.70	0.342	6.44	0.876	4.80	–	–	0.869	6.33	0.983	< 7.00
SIMA (neuroblastoma, adherent)	0.985	< 5.70	0.311	6.56	0.969	< 4.80	0.812	5.19	0.942	< 6.29	0.983	< 7.00
NCI-H524 (small cell lung carcinoma, suspension)	0.958	< 5.70	0.592	5.76	0.909	< 4.80	0.991	< 4.99	0.99	< 6.29	0.987	< 7.00
NCI-H1417 (small cell lung carcinoma, suspension)	0.887	< 5.70	0.316	6.56	0.982	< 4.80	0.907	< 4.99	0.973	< 6.29	0.979	< 7.00
ETK-1 (biliary tract, adherent)	0.917	< 5.70	0.218	6.89	0.935	< 4.80	0.834	5.10	0.841	6.37	0.967	< 7.00
MEG-01 (chronic myeloid leukaemia, suspension)	0.548	6.78	0.456	6.12	0.842	4.99	0.079	> 7.40	0.908	< 6.29	0.984	< 7.00
NCI-H1436 (small cell lung carcinoma, suspension)	0.985	< 5.70	0.6	5.71	0.982	< 4.80	0.921	< 4.99	0.941	< 6.29	0.981	< 7.00
SK-N-FI (neuroblastoma, adherent)	0.977	< 5.70	0.829	5.01	0.944	< 4.80	0.884	< 4.99	0.989	< 6.29	0.988	< 7.00
NCI-H1838 (lung adenocarcinoma, adherent)	0.942	< 5.70	0.387	6.34	0.948	< 4.80	0.976	< 4.99	0.974	< 6.29	0.985	< 7.00
YT (lymphoid neoplasm, suspension)	0.992	< 5.70	0.374	6.32	0.987	< 4.80	0.831	5.29	0.852	6.51	0.992	< 7.00
CPC-N (small cell lung carcinoma, suspension)	0.971	< 5.70	0.355	–	0.967	< 4.80	0.922	< 4.99	0.985	< 6.29	0.979	< 7.00
NCI-H446 (small cell lung carcinoma, semi-adherent)	0.986	< 5.70	0.755	5.24	0.935	< 4.80	0.866	< 4.99	0.97	< 6.29	0.983	< 7.00
P30-OHK (lymphoblastic leukaemia, suspension)	0.815	6.06	0.067	> 7.20	0.991	< 4.80	0.49	6.22	0.838	6.58	0.989	< 7.00
C2BBe1 (large intestine, adherent)	0.88	< 5.70	0.635	5.61	0.933	< 4.80	0.885	< 4.99	0.975	< 6.29	0.975	< 7.00
OCI-AML3 (acute myeloid leukaemia, suspension)	0.979	< 5.70	0.314	6.48	0.968	< 4.80	0.327	6.64	0.981	< 6.29	0.98	< 7.00
LS-123 (large intestine, adherent)	0.982	< 5.70	0.559	5.82	0.945	< 4.80	0.956	< 4.99	0.911	< 6.29	0.975	< 7.00
NCI-H64 (small cell lung carcinoma, suspension)	0.979	< 5.70	0.575	5.82	0.995	< 4.80	0.86	5.28	0.977	< 6.29	–	–
JVM-2 (lymphoid neoplasm, suspension)	0.825	5.80	0.378	6.37	0.954	< 4.80	0.891	< 4.99	0.963	< 6.29	0.958	< 7.00
HCC2157 (breast, suspension)	0.971	< 5.70	0.46	6.11	0.972	< 4.80	0.987	< 4.99	0.903	< 6.29	0.985	< 7.00
NB6 (neuroblastoma, adherent)	0.957	< 5.70	0.588	5.74	0.984	< 4.80	0.946	< 4.99	0.918	< 6.29	0.93	< 7.00

Cell Line	AUC (Bosutinib)	pIC50 (Bosutinib)	AUC (Mitomycin C)	pIC50 (Mitomycin C)	AUC (Roscovitine)	pIC50 (Roscovitine)	AUC (NVP-BHG712)	pIC50 (NVP-BHG712)	AUC (Midostaurin)	pIC50 (Midostaurin)	AUC (IOX2)	pIC50 (IOX2)
D-283MED (medulloblastoma, adherent)	0.983	< 5.70	0.275	6.61	0.978	< 4.80	0.991	< 4.99	0.934	< 6.29	0.99	< 7.00
RCC10RGB (kidney, adherent)	0.911	< 5.70	0.559	5.77	0.924	< 4.80	0.932	< 4.99	0.874	< 6.29	–	–
LB647-SCLC (small cell lung carcinoma, semi-adherent)	0.985	< 5.70	0.346	6.45	0.921	< 4.80	–	–	0.878	< 6.29	0.977	< 7.00
SW954 (urogenital system, adherent)	0.85	–	0.157	7.06	0.965	< 4.80	0.89	< 4.99	0.86	6.36	–	–
GCIY (stomach, adherent)	0.957	< 5.70	0.376	6.36	0.816	4.98	0.887	< 4.99	0.791	6.58	–	–
SUP-B15 (lymphoblastic leukaemia, suspension)	0.793	6.06	0.078	> 7.20	0.938	< 4.80	0.504	6.18	0.893	< 6.29	–	–
EHEB (lymphoid neoplasm, suspension)	0.898	< 5.70	0.445	6.18	0.923	< 4.80	–	–	0.953	< 6.29	0.975	< 7.00
Ramos-2G6-4C10 (Burkitt lymphoma, suspension)	0.834	5.98	0.607	5.73	0.922	< 4.80	0.86	5.18	0.894	6.34	–	–
JSC-1 (B-cell lymphoma, suspension)	0.978	< 5.70	0.182	6.95	0.888	< 4.80	0.628	5.84	0.92	< 6.29	–	–
NCI-H510A (small cell lung carcinoma, semi-adherent)	0.961	< 5.70	0.359	6.38	0.908	< 4.80	0.841	5.20	0.952	< 6.29	–	–
ES7 (Ewing sarcoma, adherent)	0.915	< 5.70	0.055	> 7.20	0.974	< 4.80	–	–	0.86	6.35	0.982	< 7.00
MHH-NB-11 (neuroblastoma, adherent)	0.85	5.76	0.271	6.68	0.872	< 4.80	0.765	5.39	0.985	< 6.29	–	–
ES4 (Ewing sarcoma, adherent)	0.783	6.01	0.093	> 7.20	0.947	< 4.80	–	–	0.914	< 6.29	0.979	< 7.00
ES1 (Ewing sarcoma, adherent)	0.877	5.71	0.069	> 7.20	0.948	< 4.80	–	–	0.879	6.29	0.97	< 7.00
IM-9 (myeloma, suspension)	0.98	< 5.70	0.108	7.15	0.992	< 4.80	–	–	0.957	< 6.29	0.991	< 7.00
BB30-HNC (head and neck, adherent)	0.631	6.54	0.127	7.17	0.93	< 4.80	0.93	< 4.99	0.881	< 6.29	–	–
MY-M12 (leukaemia, suspension)	0.74	6.17	0.208	6.92	0.949	< 4.80	0.187	7.20	0.956	< 6.29	–	–
DOHH-2 (B-cell lymphoma, suspension)	0.878	5.71	0.17	6.99	0.936	< 4.80	–	–	0.923	< 6.29	–	–
LC-2-ad (lung adenocarcinoma, adherent)	–	–	0.03	> 7.20	0.975	< 4.80	0.913	< 4.99	0.669	7.02	0.977	< 7.00
Hs-445 (Hodgkin lymphoma, suspension)	–	–	0.095	> 7.20	0.954	< 4.80	0.896	< 4.99	0.919	< 6.29	0.969	< 7.00
NCI-H1963 (small cell lung carcinoma, suspension)	0.991	< 5.70	0.492	6.02	0.907	< 4.80	0.97	< 4.99	0.904	< 6.29	–	–
COLO-829 (melanoma, adherent)	–	–	0.584	5.72	0.973	< 4.80	0.873	< 4.99	0.919	< 6.29	0.92	< 7.00
